{
  "source": "patent US20210155702A1",
  "about": "(SHANGHAI CELL THERAPY RESEARCH INSTITUTE, published 2021)",
  "target": "T1, CD47 on the surface of cells (T cells; tumor cell lines H23, SKOV3, ASPC-1, Hgc27) (human, UniProt Q08722)",
  "T1 construct": "whole, on cells",
  "sequence (Q08722 19-323)": "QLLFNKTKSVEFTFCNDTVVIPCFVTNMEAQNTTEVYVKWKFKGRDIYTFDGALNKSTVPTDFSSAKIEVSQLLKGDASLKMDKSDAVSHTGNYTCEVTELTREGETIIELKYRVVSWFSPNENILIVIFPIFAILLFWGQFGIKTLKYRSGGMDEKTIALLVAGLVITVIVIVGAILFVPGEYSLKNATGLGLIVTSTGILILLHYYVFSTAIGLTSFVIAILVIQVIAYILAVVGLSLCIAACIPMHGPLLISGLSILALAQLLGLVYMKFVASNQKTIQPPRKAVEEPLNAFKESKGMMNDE",
  "experiment": "flow cytometry of T cells with murine anti-human CD47-FITC",
  "data": [
    {"binder": "mutant CD47 antibody (light chain signal peptide-CD47 ligand-IgG4Fc) (Fc fusion, It was tested as secreted by the cells or as culture supernatant, not purified; also called αCD47) EEELQIIQPDKSVLVAAGETATLRCTITSLFPVGPIQWFRGAGPGRVLIYNQRQGPFPRVTTVSDTTKRNNMDFSIRIGNITPADAGTYYCIKFRKGSPDDVEFKSGAGTELSVRAKP[human IgG4 Fc with S228P L235E N297Q (EU numbers) cut from this listing]", "values": [
      {"measurement": "binding result", "value": "binds"}
    ]}
  ]
}
